Experiment: soluble fraction after stress (log2 fold change); higher = more stays soluble; pooled small domains, quantitative proteomics
Details: stress: 75 degC
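Note: 20 min heating vs room temperature control held 20 min.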

Sequence | soluble fraction (log2)
HMAKGTVKWFNETKGYGFIAPEGGKKDVFVHITALERAGLRGLKDGQAVNFDIEAGRDGRESAINITL | -0.529
HMAMINTVQPILVEGLSKKNNDTLFGRTENNRVVNFEGSRSLIGNFVNIKITEALSNSLRGIIQS | -0.171
HMDEEMLELVEMEMRELLSFYDFDGDNTPIIRGSALGALNGVPQWEDKVMELMDAVDTWIPLP | -0.403
HMGMVGTNHRILVDGVSRKNAGHLSGRTENNRVVNFAAGEASIGDFRDVRITEALPNSLRAEVLG | -0.114
HMKVDQVDDAELLDLVEMEIRELLSSYDFPGDDVPIVKGSALAAVEDRDEAIGKNSIIELMSKVDEYIPAP | 0.161
HMQPVNIEPRSPLHAQVLLDRANFSPGQIDGEVGSNQRRAVSGLQAARGLKVTGELDEETWQALQAD | 0.0246
HMSASHYDVLNLKKTASETEIKKAYRKLAVEYHPDKVMNLGEEYQKAAKEKFQKVQEAYEQIKLERGI | 0.0712
HMVDDEELLDLVEMEVRELLDDYEFPGDDTPIIRGSALMALEDPAGPWGDKIVELFEAVDSYIP | 0.18
HMYDTKLTTQDAADYLGISRPTLEKLLEQGDIPFTRVGRHRRVMLSDLQHYAVTQHDKNMQIFDAIAA | -0.0563

Reference: the domain aggregation screens of Martell et al. (2025)
